# Data taken from the supplement of paper PMC3334620.
# The full ranking holds about 33,000 sequences; the median of “E-score (-0.5 to 0.5)” is about -0.043, and the highest 2% start at about 0.37. The list shows a part of the results.
# Biological target: T1, Upc2 (UniProt Q12151)
# T1 sequence: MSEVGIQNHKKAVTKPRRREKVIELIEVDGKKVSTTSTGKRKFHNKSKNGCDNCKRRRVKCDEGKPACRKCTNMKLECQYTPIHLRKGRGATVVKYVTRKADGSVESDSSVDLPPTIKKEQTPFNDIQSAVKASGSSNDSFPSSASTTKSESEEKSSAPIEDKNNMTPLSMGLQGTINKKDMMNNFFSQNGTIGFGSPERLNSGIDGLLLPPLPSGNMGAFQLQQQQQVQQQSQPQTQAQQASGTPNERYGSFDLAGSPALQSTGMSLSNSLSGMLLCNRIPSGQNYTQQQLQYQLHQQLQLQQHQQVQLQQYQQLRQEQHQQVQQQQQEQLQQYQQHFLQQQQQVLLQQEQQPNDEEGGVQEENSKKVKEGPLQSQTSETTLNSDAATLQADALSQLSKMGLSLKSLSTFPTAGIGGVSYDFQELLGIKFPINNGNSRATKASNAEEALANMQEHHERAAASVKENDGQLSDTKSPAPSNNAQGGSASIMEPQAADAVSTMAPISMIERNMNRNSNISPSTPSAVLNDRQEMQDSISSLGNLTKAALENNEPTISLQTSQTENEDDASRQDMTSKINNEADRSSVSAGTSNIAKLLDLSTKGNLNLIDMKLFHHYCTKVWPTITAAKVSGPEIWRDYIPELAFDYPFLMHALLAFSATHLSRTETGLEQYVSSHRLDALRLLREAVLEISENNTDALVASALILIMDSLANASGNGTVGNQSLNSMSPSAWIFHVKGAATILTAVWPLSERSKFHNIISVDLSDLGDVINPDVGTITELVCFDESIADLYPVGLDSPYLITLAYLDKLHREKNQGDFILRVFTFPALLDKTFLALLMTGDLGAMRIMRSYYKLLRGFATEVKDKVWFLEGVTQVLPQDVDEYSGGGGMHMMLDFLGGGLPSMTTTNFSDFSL
# Assay: PBM E-score (8-mer binding enrichment) (E-score (-0.5 to 0.5)); higher = stronger / more preferred TF binding; most listed sequences are background and not binding sites
# Settings: protein concentration: 200 nM; construct: GST-full length
# Protocol: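 Universal 'all 10-mer' protein binding microarrays (Agilent AMADID 015681) probed with GST-tagged S. cerevisiae TFs (full-length or DBD) made by in vitro transcription/translation (PURExpress), about 100-200 nM. Bound TF was detected with fluorescent anti-GST. Each ungapped 8-mer (which stands for itself and its reverse complement) is scored by the PBM enrichment score (E-score), a modified Wilcoxon-Mann-Whitney statistic from -0.5 to +0.5, computed with the Universal PBM Analysis Suite. Scale: above 0.35 generally sequence-specific binding.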
row,Sequence,PBM E-score
1,ACGCGCCT,0.21
2,GTGCGGGA,-0.00398
3,CCCATGAC,-0.0529
4,AAGGTATT,0.0171
5,AAAACGTT,0.0958
6,ACCGGATA,0.041
7,CAATAGTC,-0.256
8,AATCCAGC,-0.175
9,GATACCCC,-0.00201
10,ACTCATCT,-0.037
11,CTGGAGAA,-0.223
12,CAATTCGG,0.161
13,AGCCCCAA,-0.109
14,CCACACTA,-0.118
15,CCTATGTC,-0.0856
16,ACGCGCAG,0.0316
17,GAAATCGC,-0.0266
18,AACTGTTC,-0.159
19,CCCCCTAG,-0.252
20,CAGATAGG,-0.0703
21,AGCGATAC,0.202
22,CTGAATAC,0.143
23,TCATGCAA,-0.0292
24,CAGAAAAG,0.0825
25,AAATCTCC,-0.271

row,Sequence,PBM E-score
1,AAGTCGAT,-0.0302
2,CGGCTAGC,-0.171
3,TCCCCGCA,-0.0337
4,GGCCAAAC,0.0898
5,CATTGGCA,-0.286
6,AGTCTTGG,-0.0465
7,AACTCACT,-0.291
8,CACATCGA,0.0622
9,CAAAGTTG,-0.232
10,AAGAACAT,-0.0961
11,AAGGGGAT,-0.0822
12,ATATTCGC,0.095
13,GTCCGAGA,0.205
14,ATGCTTGA,-0.115
15,ATCAGCAA,-0.269
16,AAAGACCC,-0.204
17,TCGATCCA,-0.0534
18,ATGCGCGA,0.101
19,ACTGGAGA,-0.105
20,ATCACAAG,-0.0323
21,CTCTTTTC,-0.0569
22,CTGAGAAA,-0.0796
23,GACGTGTA,-0.0304
24,AACACGAA,0.162
25,CTCCCGGA,-0.135

row,Sequence,PBM E-score
1,AAGATGCG,0.0891
2,AGAGGACT,-0.327
3,AGGTTTAC,0.0227
4,ATCCGATA,0.149
5,GGGTATCA,-0.178
6,CACGACAA,0.0377
7,CTCCCCTC,-0.0398
8,AAGTACAA,0.0513
9,GCTGAAAA,0.039
10,AACACCAC,-0.147
11,AGTAGTCA,-0.222
12,CGGATCCA,0.0178
13,GAAGGCTA,-0.146
14,CTATGAAC,0.0942
15,GAGACAAC,-0.068
16,AAAGCAGT,-0.125
17,ACTCAGAA,0.0112
18,AGGTTAAT,-0.0345
19,AACGAGGG,0.43
20,CTTATCTC,-0.0143
21,CAGACCTG,-0.0763
22,GAGTGTCC,-0.00924
23,AATAACCT,-0.112
24,AGGCATAC,-0.00796
25,ACATTCAA,-0.0481

row,Sequence,PBM E-score
1,AGCTTACC,-0.108
2,GAGGTGAC,-0.0769
3,CCATCATA,-0.29
4,CGGAATGC,-0.118
5,ACGTCACG,-0.0401
6,AATGGCCC,-0.213
7,ACTCTCTG,-0.0196
8,ATTTGTTC,0.22
9,CGCACGCC,0.0144
10,GGTCGTAA,0.421
11,AAGGTGCG,0.00721
12,CCGGGACA,-0.213
13,GCTGTACC,-0.131
14,AGGATTAG,-0.0183
15,AAGCTACC,-0.14
16,TACTCGCA,0.17
17,ACACTCAA,0.12
18,GTTACGGA,0.233
19,GGCCCGAC,-0.167
20,AACTCTTA,0.181
21,GACATCGA,-0.0104
22,CGCACCGC,0.0242
23,ATCGAGGA,0.0976
24,ATGTATTA,0.0629
25,GCTATACC,0.144

row,Sequence,PBM E-score
1,AGCACCTG,-0.273
2,CGCTCACC,0.1
3,ACCTGCCC,-0.328
4,AATGCCAA,-0.189
5,AACGGTCC,0.169
6,AAACAAGC,-0.0355
7,ATCCAGGG,-0.0324
8,AGTCCGGG,-0.185
9,CGTCGCCA,-0.0835
10,CTGCCTAC,-0.0176
11,GGACCCAA,-0.281
12,GCTATTCA,-0.0451
13,TAACCGTA,0.359
14,CCCGCGCG,0.0368
15,GAGAGAAA,-0.00289
16,GCCAGCTA,-0.147
17,CGGGTGAA,-0.0255
18,GGCCGGAC,-0.0799
19,AGTATCTC,0.0648
20,AAAACATA,0.142
21,GACGGATC,-0.0452
22,AATACGTG,0.155
23,GACTTTGC,-0.0185
24,CCATTCCC,-0.179
25,CGTGAACG,0.369

row,Sequence,PBM E-score
1,CTAGGATA,-0.0891
2,ACGCTATG,-0.104
3,CGTTCACC,0.318
4,AAAACGTA,0.123
5,ATTGATTG,-0.106
6,GCTTTAAC,0.234
7,ATAAATTG,0.0796
8,AAAAATAT,0.0488
9,GCGATCAC,-0.0932
10,AAGAGCTA,-0.126
11,CTTGGCGA,-0.221
12,AGACCAAC,-0.177
13,CAAGGATG,-0.322
14,GGCTCAAA,-0.0897
15,CCAACCTC,-0.0315
16,ACTCGCCC,-0.205
17,ACGGCCGG,0.185
18,TAAGCGAA,0.357
19,AATCTTGC,0.0564
20,ACATTTGA,-0.0192
21,CATAGGCC,-0.00042
22,CTACATAA,-0.282
23,GTTGCAAC,0.176
24,TATAACCA,0.199
25,CTAAAGTC,-0.173

row,Sequence,PBM E-score
1,CCTGGAGC,-0.181
2,ACTATTAC,0.139
3,TAATTAGA,-0.0275
4,AATGCCGG,-0.0772
5,ACACGTTC,0.0624
6,TGACATCA,-0.147
7,ACCATCGA,0.0236
8,GTCAGCAA,-0.0896
9,AGCCATTA,0.178
10,AAGAAACC,-0.0601
11,ATGGCTCG,0.0827
12,CAGCATGC,-0.172
13,CGACAAGA,0.117
14,CTCACTCA,-0.162
15,TGCGCGCA,-0.0425
16,ATCCTTCC,-0.348
17,ATAGGGAA,-0.212
18,GGCACTCA,-0.233
19,CGCAAAGA,-0.00387
20,ATTAATGC,-0.0273
21,GAATGCAC,-0.0715
22,ACCCGCTC,0.0104
